Results on 18 molecules are retold here after patent publication US7342041B2, “3,4-(cyclopentyl)-fused proline compounds as inhibitors of hepatitis C virus NS3 serine protease” (Schering Corporation, priority 2004, dated 2008).

Some results are limits rather than exact numbers.

The first assay addresses Recombinant heterodimeric HCV NS3/NS4A protease (strain 1a) (Hepatitis C virus genotype 1a, UniProt P27958). The assay can be described thus: biochemical.
Settings: not given
An excerpt:
Assay for HCV Protease Inhibitory Activity:
Spectrophotometric Assay: Spectrophotometric assay for the HCV serine protease can be performed on the inventive compounds by following the procedure described by R. Zhang et al, Analytical Biochemistry, 270 (1999) 268-275, the disclosure of which is incorporated herein by reference. The assay based on the proteolysis of chromogenic ester substrates is suitable for the continuous monitoring of HCV NS3 protease activity. The substrates are derived from the P side of the NS5A-NS5B junction sequence (Ac-DTEDWX(Nva), where X=A or P) whose C-terminal carboxyl groups are esterified with one of four different chromophoric alcohols (3- or 4-nitrophenol, 7-hydroxy-4-methyl-coumarin, or 4-phenylazophenol). […] Materials and Methods:
Materials: Chemical reagents for assay related buffers are obtained from Sigma Chemical Company (St. Louis, Mo.). Reagents for peptide synthesis were from Aldrich Chemicals, Novabiochem (San Diego, Calif.), Applied Biosystems (Foster City, Calif.) and Perseptive Biosystems (Framingham, Mass.). Peptides are synthesized manually or on an automated ABI model 431A synthesizer (from Applied Biosystems). UV/VIS Spectrometer model LAMBDA 12 was from Perkin Elmer (Norwalk, Conn.) and 96-well UV plates were obtained from Corning (Corning, N.Y.). The prewarming block can be from USA Scientific (Ocala, Fla.) and the 96-well plate vortexer is from Labline Instruments (Melrose Park, Ill.). A Spectramax Plus microtiter plate reader with monochrometer is obtained from Molecular Devices (Sunnyvale, Calif.).
Protein concentrations are determined by the Biorad dye method using recombinant HCV protease standards previously quantified by amino acid analysis. Prior to assay initiation, the enzyme storage buffer (50 mM sodium phosphate pH 8.0, 300 mM NaCl, 10% glycerol, 0.05% lauryl maltoside and 10 mM DTT) is exchanged for the assay buffer (25 mM MOPS pH 6.5, 300 mM NaCl, 10% glycerol, 0.05% lauryl maltoside, 5 μM EDTA and 5 μM DTT) utilizing a Biorad Bio-Spin P-6 prepacked column. Substrate Synthesis and Purification: The synthesis of the substrates is done as reported by R. Zhang et al, (ibid.) and is initiated by anchoring Fmoc-Nva-OH to 2-chlorotrityl chloride resin using a standard protocol (K. Barlos et al, Int. J. Pept. Protein Res., 37 (1991), 513-520). The peptides are subsequently assembled, using Fmoc chemistry, either manually or on an automatic ABI model 431 peptide synthesizer. […] The combined filtrate and DCM wash is evaporated azeotropically (or repeatedly extracted by aqueous Na2CO3 solution) to remove the acid used in cleavage. The DCM phase is dried over Na2SO4 and evaporated.
The ester substrates are assembled using standard acid-alcohol coupling procedures (K. Holmber et al, Acta Chem. Scand., B33 (1979) 410-412). Peptide fragments are dissolved in anhydrous pyridine (30-60 mg/ml) to which 10 molar equivalents of chromophore and a catalytic amount (0.1 eq.) of para-toluenesulfonic acid (pTSA) were added. Dicyclohexylcarbodiimide (DCC, 3 eq.) is added to initiate the coupling reactions. […] Pyridine solvent is evaporated under vacuum and further removed by azeotropic evaporation with toluene.
As a reminder, the Ki is a dissociation constant, usually derived from enzyme kinetics or from competition with a known ligand. With `C#CCCC(NC(=O)[C@@H]1[C@H]2CCC[C@H]2CN1C(=O)[C@@H](NC(=O)[C@@H](NC(=O)c1cnccn1)C1CCCCC1)C(C)(C)C)C(=O)C(=O)NCC=C` (stereo partly drawn) [Entry 8], the Ki was less than 0.075 µM.

Staying with this assay, now noted: HCV NS3/NS4A protease, strain 1a; 30° C., pH 6.5 assay buffer; read-out: Ki*.
On to `CC(C)(C)[C@H](NC(=O)N[C@H](CN1C(=O)c2ccccc2C1=O)C(C)(C)C)C(=O)N1C[C@@H]2CCC[C@@H]2[C@H]1C(=O)NC(CC1CCC1)C(=O)C(N)=O` (stereo partly drawn) [Entry 1], for which the Ki amounted to 0.013 µM. Same read-out and setting: next, `CC(C)[C@H](NC(=O)N[C@H](C(=O)N1C[C@@H]2CCC[C@@H]2[C@H]1C(=O)NC(CC1CCC1)C(=O)C(N)=O)C(C)(C)C)C(=O)C1CC1` (stereo partly drawn) [Entry 2]: 0.04 µM; `CC(C)(C)[C@H](NC(=O)NC1(CS(=O)(=O)C(C)(C)C)CCCCC1)C(=O)N1C[C@@H]2CCC[C@@H]2[C@H]1C(=O)NC(CC1CCC1)C(=O)C(N)=O` (stereo partly drawn) [Entry 3]: 0.03 µM; `CN(C[C@@H](NC(=O)N[C@H](C(=O)N1C[C@@H]2CCC[C@@H]2[C@H]1C(=O)NC(CC1CCC1)C(=O)C(N)=O)C(C)(C)C)C(C)(C)C)S(C)(=O)=O` (stereo partly drawn) [Entry 4]: 0.015 µM. On the same count and under the same terms, next, `CN(C[C@@H](NC(=O)N[C@H](C(=O)N1C[C@@H]2CCC[C@@H]2[C@H]1C(=O)NC(CC1CCC1)C(=O)C(N)=O)C(C)(C)C)C(C)(C)C)S(=O)(=O)c1cccs1` (stereo partly drawn) [Entry 5]: 0.019 µM. The same measure, in the same setting: next, `C#CCCC(NC(=O)[C@@H]1[C@H]2CCC[C@H]2CN1C(=O)[C@@H](NC(=O)NC1(CS(=O)(=O)C(C)(C)C)CCCCC1)C(C)(C)C)C(=O)C(=O)NCC=C` (stereo partly drawn) [Entry 6]: 0.027 µM.

Staying with this assay, now noted: HCV NS3/NS4A protease; activity class, Table 2A; read-out: Range of Ki*.
Turning to `CC(C)(C)OC(=O)N[C@H](C(=O)N1C[C@@H]2CCC[C@@H]2[C@H]1C(=O)NC(CC1CCC1)C(=O)C(N)=O)C(C)(C)C` (stereo partly drawn) [Entry 1], the Ki was greater than 0.25 µM. As for `CN(C[C@@H](NC(=O)N[C@H](C(=O)N1C[C@@H]2CCC[C@@H]2[C@H]1C(=O)NC(CC1CCC1)C(=O)C(N)=O)C(C)(C)C)C(C)(C)C)S(C)(=O)=O` (stereo partly drawn) [Entry 2], the Ki was less than 0.075 µM. Regarding `CC(C)[C@H](NC(=O)N[C@H](C(=O)N1C[C@@H]2CCC[C@@H]2[C@H]1C(=O)NC(CC1CCC1)C(=O)C(N)=O)C(C)(C)C)C(=O)C1CC1` (stereo partly drawn) [Entry 3], the Ki is less than 0.075 µM.

Regarding `CC(C)(C)[C@H](NC(=O)N[C@H](CN1C(=O)c2ccccc2C1=O)C(C)(C)C)C(=O)N1C[C@@H]2CCC[C@@H]2[C@H]1C(=O)NC(CC1CCC1)C(=O)C(N)=O` (stereo partly drawn) [Entry 4], the Ki is less than 0.075 µM. Regarding `CC(C)(C)[C@H](NC(=O)NC1(CS(=O)(=O)C(C)(C)C)CCCCC1)C(=O)N1C[C@@H]2CCC[C@@H]2[C@H]1C(=O)NC(CC1CCC1)C(=O)C(N)=O` (stereo partly drawn) [Entry 5], the Ki is less than 0.075 µM. The same measure, in the same setting: next, `CN(C[C@@H](NC(=O)N[C@H](C(=O)N1C[C@@H]2CCC[C@@H]2[C@H]1C(=O)NC(CC1CCC1)C(=O)C(N)=O)C(C)(C)C)C(C)(C)C)S(=O)(=O)c1cccs1` (stereo partly drawn) [Entry 6]: less than 0.075 µM. On the same count and under the same terms, next, `C#CCCC(NC(=O)[C@@H]1[C@H]2CCC[C@H]2CN1C(=O)[C@@H](NC(=O)NC1(CS(=O)(=O)C(C)(C)C)CCCCC1)C(C)(C)C)C(=O)C(=O)NCC=C` (stereo partly drawn) [Entry 9]: less than 0.075 µM.

`CCC[C@H](NC(=O)[C@@H]1[C@H]2CCC[C@H]2CN1C(=O)[C@@H](NC(=O)N[C@H](CN1C(=O)CC(C)(C)CC1=O)C(C)(C)C)C(C)(C)C)C(=O)C(=O)NC1CC1` [Entry 10]: the Ki was less than 0.075 µM.

Turning to `C=CCNC(=O)C(=O)C(CCC)NC(=O)[C@@H]1[C@H]2CCC[C@H]2CN1C(=O)[C@@H](NC(=O)N[C@H](CN1C(=O)CC(C)(C)CC1=O)C(C)(C)C)C(C)(C)C` (stereo partly drawn) [Entry 11], the Ki is less than 0.075 µM.

For `C=CCNC(=O)C(=O)C(CCCC)NC(=O)[C@@H]1[C@H]2CCC[C@H]2CN1C(=O)[C@@H](NC(=O)N[C@H](CN1C(=O)CC(C)(C)CC1=O)C(C)(C)C)C(C)(C)C` (stereo partly drawn) [Entry 12], the Ki is less than 0.075 µM. Still for that read-out and setting: next, `C=CCNC(=O)C(=O)C(CC1CC1)NC(=O)[C@@H]1[C@H]2CCC[C@H]2CN1C(=O)[C@@H](NC(=O)N[C@H](CN1C(=O)CC(C)(C)CC1=O)C(C)(C)C)C(C)(C)C` (stereo partly drawn) [Entry 13]: less than 0.075 µM.
